Drawing on the antibiotic and cytotoxicity screens of Wong et al. (2023), this text covers cytotoxicity call and growth inhibition call for 26 compounds.

Some of the results follow.

The subject of assay [1] is HSkMC (human skeletal muscle cells). Kind of assay: cytotoxicity call (relative viability < 0.9). To be noted: 10 µM.
In assay [2] the test system is HepG2. Description: cytotoxicity call (relative viability < 0.9). Conditions: 10 µM.
For assay [3], the system named is S. aureus RN4220. Kind of assay: growth inhibition call (relative growth <= 0.2). To be noted: 50 µM.

As to `COc1ccc(S(=O)(=O)N(C)C[C@H]2Oc3c(NC(=O)c4cnccn4)cccc3C(=O)N([C@H](C)CO)C[C@@H]2C)cc1`, the cytotoxicity call in assay [1] and in assay [2] was “inactive” in each case. Besides, the growth inhibition call in assay [3] is “inactive”.
Regarding `C[C@@H]1CN([C@H](C)CO)C(=O)Cc2cc(NC(=O)Nc3ccccc3)ccc2O[C@H]1CN(C)Cc1ccc(Cl)c(Cl)c1`, the cytotoxicity call in assay [1] and in assay [2] was “active” throughout. In assay [3], the growth inhibition call was “inactive”.
With `C[C@@H]1CN([C@H](C)CO)C(=O)c2cc(NC(=O)CCN3CCOCC3)ccc2O[C@@H]1CN(C)C(=O)Nc1ccc(F)cc1`, the cytotoxicity call in assay [1] and in assay [2] was “inactive” in each case. The growth inhibition call in assay [3] is “inactive”.
Consider `O=C1O[C@@H](c2ccccc2)[C@@H](c2ccccc2)N2[C@@H](c3ccc(OCCO)cc3)[C@]3(C(=O)Nc4ccccc43)[C@@H](C(=O)NC[C@H](O)c3ccccc3)[C@H]12`, for which the cytotoxicity call in assay [1] and in assay [2] was “inactive” each time. Moreover, in assay [3], the growth inhibition call is “inactive”.
For `CC(C)CC#Cc1ccc2c(c1)O[C@@H](CN(C)C(=O)C1CCOCC1)[C@H](C)CN([C@H](C)CO)S2(=O)=O`, the cytotoxicity call in assay [1] and in assay [2] was “inactive” in each case. Further, the growth inhibition call in assay [3] was “inactive”.
As for `C[C@H]1CN([C@@H](C)CO)C(=O)Cc2cc(NS(=O)(=O)c3cn(C)cn3)ccc2O[C@H]1CN(C)Cc1ccc2c(c1)OCO2`, the cytotoxicity call in assay [1] and in assay [2] was “inactive” in each case. In assay [3], the growth inhibition call was “inactive”.
For `C[C@@H]1CN([C@H](C)CO)C(=O)Cc2cc(NC(=O)CCN3CCOCC3)ccc2O[C@@H]1CN(C)C(=O)NC1CCCCC1`, the cytotoxicity call in assay [1] and in assay [2] was “inactive” each time. Further, the growth inhibition call in assay [3] was “inactive”.
In the case of `C[C@@H]1CCCCO[C@H](CN(C)C(=O)c2ccccc2)[C@@H](C)CN([C@@H](C)CO)C(=O)c2cc(NS(=O)(=O)c3cccs3)ccc2O1`, the cytotoxicity call in assay [1] and in assay [2] was “inactive” each time. Besides, the growth inhibition call in assay [3] was “inactive”.
For `C[C@@H]1CCCCO[C@H](CN(C)C(=O)CCC(F)(F)F)[C@@H](C)CN([C@H](C)CO)C(=O)c2cc(NS(=O)(=O)c3ccccc3)ccc2O1`, the cytotoxicity call in assay [1] and in assay [2] was “inactive” throughout. Moreover, the growth inhibition call in assay [3] is “inactive”.
In the case of `C[C@H]1CCCCO[C@@H](CN(C)C(=O)NC2CCCCC2)[C@@H](C)CN([C@@H](C)CO)C(=O)c2cc(NS(=O)(=O)c3ccccc3)ccc2O1`, the cytotoxicity call in assay [1] and in assay [2] was “inactive” throughout. Moreover, the growth inhibition call in assay [3] was “inactive”.
As for `C[C@@H]1CCCCO[C@@H](CN(C)C(=O)Nc2ccc(C(F)(F)F)cc2)[C@H](C)CN([C@@H](C)CO)C(=O)c2cc(NS(=O)(=O)c3ccccc3)ccc2O1`, the cytotoxicity call in assay [1] and in assay [2] was “inactive” in each case. In addition, the growth inhibition call in assay [3] was “inactive”.
For `C[C@@H]1CN([C@H](C)CO)C(=O)c2c(c3ccccc3n2C)-c2ccccc2CO[C@H]1CN(C)C(=O)c1cc(Cl)cc(Cl)c1`, in assay [1], the cytotoxicity call is “active”. For the same compound, the cytotoxicity call in assay [2] is “inactive”. Moreover, the growth inhibition call in assay [3] is “inactive”.
With `Cc1ccc(S(=O)(=O)Nc2ccc3c(c2)C(=O)N([C@H](C)CO)C[C@@H](C)[C@H](CN(C)S(=O)(=O)c2cn(C)cn2)O3)cc1`, the cytotoxicity call in assay [1] and in assay [2] was “inactive” in each case. Moreover, the growth inhibition call in assay [3] was “inactive”.
As to `C[C@@H]1CN([C@@H](C)CO)C(=O)c2c(c3ccccc3n2C)-c2ccccc2CO[C@H]1CN(C)Cc1ccc(O)cc1`, the cytotoxicity call in assay [1] and in assay [2] was “inactive” in each case. The growth inhibition call in assay [3] was “inactive”.
For the compound `C[C@@H]1CN([C@H](C)CO)C(=O)c2cccc(NC(=O)Nc3ccc(F)cc3)c2O[C@@H]1CN(C)S(=O)(=O)c1cn(C)cn1`, the cytotoxicity call in assay [1] and in assay [2] was “inactive” throughout. Also, in assay [3], the growth inhibition call was “inactive”.
Take `C[C@@H]1CN([C@@H](C)CO)S(=O)(=O)c2ccc(-c3cccnc3)cc2O[C@@H]1CN(C)C(=O)NC1CCCC1`: the cytotoxicity call in assay [1] and in assay [2] was “inactive” throughout. Also, the growth inhibition call in assay [3] is “inactive”.
For `CCN(CC)c1ccc(N2CC=C[C@@]34O[C@@H]5/C=C\CCCOC(=O)[C@@H]5[C@H]3C(=O)N([C@@H](C)CO)[C@@H]4C2=O)cc1`, the cytotoxicity call in assay [1] and in assay [2] was “inactive” in each case. Moreover, the growth inhibition call in assay [3] was “inactive”.
Regarding `C[C@H](CO)N1C[C@H](C)[C@H](CN(C)S(=O)(=O)c2ccc(F)cc2)Oc2ccc(NS(=O)(=O)c3ccccc3)cc2CC1=O`, the cytotoxicity call in assay [1] and in assay [2] was “inactive” throughout. Moreover, the growth inhibition call in assay [3] is “inactive”.
Regarding `C[C@@H]1CCCCO[C@H](CN(C)C(=O)Nc2ccc(C(F)(F)F)cc2)[C@@H](C)CN([C@H](C)CO)C(=O)c2cc(NC(=O)Nc3cccc4ccccc34)ccc2O1`, the cytotoxicity call in assay [1] and in assay [2] was “inactive” throughout. For the same compound, in assay [3], the growth inhibition call is “inactive”.
For the compound `C[C@H]1CN([C@@H](C)CO)C(=O)Cc2cc(NC(=O)Nc3ccc(C(F)(F)F)cc3)ccc2O[C@H]1CN(C)C(=O)Nc1ccc(C(F)(F)F)cc1`, the cytotoxicity call in assay [1] and in assay [2] was “active” throughout. In addition, in assay [3], the growth inhibition call was “inactive”.
Consider `COCC(=O)N1C[C@]2(C1)CN([C@H](CO)c1c2c2ccc(cc2n1C)OC)C(=O)CN1CCOCC1`, for which the cytotoxicity call in assay [1] and in assay [2] was “inactive” each time. Further, in assay [3], the growth inhibition call is “inactive”.
With `C[C@@H]1CN([C@H](C)CO)C(=O)c2cccc(NS(=O)(=O)c3cn(C)cn3)c2O[C@H]1CN(C)Cc1ccncc1`, the cytotoxicity call in assay [1] and in assay [2] was “inactive” throughout. For the same compound, in assay [3], the growth inhibition call was “inactive”.
`C[C@@H]1CN([C@@H](C)CO)C(=O)Cc2cc(NC(=O)Cc3ccccc3)ccc2O[C@H]1CN(C)S(=O)(=O)c1cn(C)cn1`: the cytotoxicity call in assay [1] and in assay [2] was “inactive” throughout. Moreover, the growth inhibition call in assay [3] was “inactive”.
As for `CN[C@@H]1[C@@H](O[C@@]2(C)O[C@H](CO)[C@@H](N)[C@H](O)[C@H]2O)O[C@H]2C[C@@H](N)[C@@H](O[C@H]3[C@H](O)[C@@H](O)[C@H](N)C[C@@H]3N)O[C@@H]2[C@@H]1O`, the cytotoxicity call in assay [1] and in assay [2] was “inactive” in each case. In addition, the growth inhibition call in assay [3] is “inactive”.
Take `COc1ccc(S(=O)(=O)N(C)C[C@@H]2OCc3cn(nn3)CCCC(=O)N([C@H](C)CO)C[C@@H]2C)cc1`: the cytotoxicity call in assay [1] and in assay [2] was “inactive” each time. The growth inhibition call in assay [3] is “inactive”.
As to `Cc1noc(C)c1NC(=O)N(C)C[C@H]1OCCCC[C@H](C)Oc2ccc(NC(=O)C3CCCCC3)cc2C(=O)N([C@H](C)CO)C[C@H]1C`, the cytotoxicity call in assay [1] and in assay [2] was “inactive” each time. The growth inhibition call in assay [3] was “inactive”.
